Test results: patent US20110312518

Target: T1, Abltide EAIYAAPFAKKK (biotin-conjugated, Millipore #12-539)
T1 chain: EAIYAAPFAKKK

B1: Abl kinase (Millipore #[…]) (protein)
chain: EALQRPVASDFEPQGLSEAARWNSKENLLAGPSE[skipping about 60 residues]LEKHSWYHGPVSRNAAEYLLSSGINGSFLVRESESSPGQRSISLRYEGRVYHYRINTASDGKLYVSSESRFNTLAELVHHHSTVADGLITTLHYPAPKRNKPTVYGVSPNYDKWEMERTDITMKHKLGGGQYGEVYEGVWKKYSLTVAVKTLKEDTMEVEEFLKEAAVMKEIKHPNLVQLLGVCTREPPFYIITEFMTYGNLLDYLRECNRQEVNAVVLLYMATQISSAMEYLEKKNFIHRDLAARNCLVGENHLVKVADFGLSRLMTGDTYTAHAGAKFPIKWTAPESLAYNKFSIKSDVWAFGVLLWEIATYGMSPYPGIDLSQVYELLEKDYRMERPEGCPEKVYELMRACWQWNPSDRPSFAEIHQAFETMFQESSISDEVEKELGKQGVRGAVSTLLQAPELPTKTRTSRRAAEHRDTTDVPEMPHSKGQGESDPLDHEPAVSPLLPRKERGPPEGGLNEDERLLPKDKKTNLFSALIKKKKKTAPTPPKRSSSFREMDGQPERRGAGEEEGRDISNGALAFTPLDTADPAKSPKPSNGAGVPNGALRESGGSGFRSPHLWKKSSTLTSSRLATGEEEGGGSSSKRFLRSCSASCVPHGAKDTEWRSVTLPRDLQSTGRQFDSSTFGGHKSEKPALPRKRAGENRSDQVTRGTVTPPPRLVKKNEEAADEVFKDIMESSPGSSPPNLTPKPLRRQVTVAPASGLPHKEEAGKGSALGTPAAAEPVTPTSKAGSGAPGGTSKGPAEESRVRRHKHSSESPGRDKGKLSRLKPAPPPPPAASAGKAGGKPSQSPSQEAAGEAVLGAKTKATSLVDAVNSDAAKPSQPGEGLKKPVLPATPKPQSAKPSGTPISPAPVPSTLPSASSALAGDQPSSTAFIPLISTRVSLRKTRQPPERIASGAITKGVVLDSTEALCLAISRNSEQMASHSAVLEAGKNLYTFCVSYVDSIQQMRNKFAFREAINKLENNLRELQICPATAGSGPAATQDFSKLLSSVKEISDIVQR
Current limit of detection (kinase assay, 96-well plate format): 10 pM
